# Results published in paper PMC4336329 (PLoS ONE, 2015).
# Out of some 310,000 compounds screened, about 2,200 (0.71%) showed an effect of 50% or more. Effects have a minus sign here. This is one part of the list.
# Target: human ether-à-go-go-related gene (hERG) potassium channel (human, UniProt Q12809)
# Experiment: primary screen, population patch clamp on CHO cells stably expressing hERG
# human ether-à-go-go-related gene (hERG) potassium channel, sequence (Q12809 whole entry, looked up): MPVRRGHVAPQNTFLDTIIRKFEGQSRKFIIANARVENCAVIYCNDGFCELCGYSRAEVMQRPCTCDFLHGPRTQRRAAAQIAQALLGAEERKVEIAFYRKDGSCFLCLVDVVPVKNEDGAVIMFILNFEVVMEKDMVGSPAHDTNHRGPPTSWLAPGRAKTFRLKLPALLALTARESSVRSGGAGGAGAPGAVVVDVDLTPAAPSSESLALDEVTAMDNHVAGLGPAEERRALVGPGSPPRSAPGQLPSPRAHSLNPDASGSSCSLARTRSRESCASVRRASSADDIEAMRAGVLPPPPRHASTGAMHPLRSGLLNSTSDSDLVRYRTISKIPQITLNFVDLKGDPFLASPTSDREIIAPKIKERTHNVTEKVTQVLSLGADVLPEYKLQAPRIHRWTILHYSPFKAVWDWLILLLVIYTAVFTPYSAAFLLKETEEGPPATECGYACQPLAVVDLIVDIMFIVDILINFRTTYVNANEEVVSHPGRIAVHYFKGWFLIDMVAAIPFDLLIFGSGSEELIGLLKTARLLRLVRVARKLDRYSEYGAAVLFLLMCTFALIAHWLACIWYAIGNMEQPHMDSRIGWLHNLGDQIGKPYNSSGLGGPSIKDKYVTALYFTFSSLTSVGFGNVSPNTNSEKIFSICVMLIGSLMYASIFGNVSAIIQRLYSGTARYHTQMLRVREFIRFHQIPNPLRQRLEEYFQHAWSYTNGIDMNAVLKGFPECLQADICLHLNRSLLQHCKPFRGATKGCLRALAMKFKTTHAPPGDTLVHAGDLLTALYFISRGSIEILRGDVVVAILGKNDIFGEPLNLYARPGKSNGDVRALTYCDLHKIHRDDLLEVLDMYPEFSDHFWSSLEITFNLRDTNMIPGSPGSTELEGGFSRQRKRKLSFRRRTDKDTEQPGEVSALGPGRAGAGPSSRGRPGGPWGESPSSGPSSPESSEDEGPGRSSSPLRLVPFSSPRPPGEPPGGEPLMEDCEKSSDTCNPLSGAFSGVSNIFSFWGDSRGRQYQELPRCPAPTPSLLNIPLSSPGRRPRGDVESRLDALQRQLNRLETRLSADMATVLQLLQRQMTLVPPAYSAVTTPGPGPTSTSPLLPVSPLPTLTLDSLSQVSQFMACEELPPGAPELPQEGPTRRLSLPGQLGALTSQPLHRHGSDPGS
row,Compound,"hERG current change (%, negative = inhibition) at 1uM [%]"
1,CC[C@H](C)[C@H](NC(N)=O)C(=O)NCCc1ccc(OC)cc1,7.72
2,CCOC(=O)Cc1csc(NC(=O)CSc2nncn2C)n1,6.08
3,CCc1ccccc1N(C(C)=O)c1nc(CN=C=S)cs1,4.12
4,CC(C)(C)c1ccc(-n2ncc3c2CCCC3NC(=O)CCN2CCCC2=O)cc1 (stereo not shown),8.77
5,CCn1c(=S)[nH]c2sc3c(c2c1=O)CCCCC3,13
6,CCOc1ccc(S(=O)(=O)N(CC(=O)NCC(F)(F)F)Cc2ccco2)cc1,11
7,Fc1ccc(C2CCCN2Cc2nc(-c3cnccn3)no2)cc1 (stereo not shown),6.97
8,Cn1c(SCC(=O)Nc2cccc(S(=O)(=O)N3CCOCC3)c2)nnc1-c1ccncc1,2.91
9,O=S(=O)(c1cccc(C(F)(F)F)c1)N1CCC(O)(c2cccnc2)CC1,2.73
10,O=C(c1nc(SCc2ccc([N+](=O)[O-])cc2)n2ccccc12)C(F)(F)F,-15.6
11,CSc1cccc(NC(=O)CNS(=O)(=O)c2ccccc2)c1,18.4
12,O=C(CCCn1c(=S)[nH]c2ccccc2c1=O)N1CCN(c2cccc(Cl)c2)CC1,7.98
13,O=C(Nc1cccc(S(=O)(=O)N2CCCCCC2)c1)c1ccc2c(c1)OCO2,13.7
14,O=C(O)c1ccc(NC(=O)c2ccco2)c(NC(=O)c2ccco2)c1,9.85
15,CCOc1ccccc1OCCC(=O)OCC(=O)c1ccc[nH]1,-1.67
16,CC(=O)Nc1ccccc1N(CC(O)Cn1c2ccccc2c2ccccc21)S(=O)(=O)c1ccc(C)cc1 (stereo not shown),18.3
17,O=C(CCCOc1ccc(Cl)cc1Cl)N/N=C/c1cccc([N+](=O)[O-])c1,7.74
18,Cc1ccc(NC(=O)CCc2c(C)nn(-c3ccc(N4CCCCC4)nn3)c2C)cc1C,2.45
19,Cc1ccc(-c2cc(C(=O)N/N=C/c3ccoc3)c3ccccc3n2)cc1,11.9
20,Cn1c(Cn2nnc3ccccc32)nnc1SCC(=O)c1ccc(F)cc1,6.16
21,N#CCCNS(=O)(=O)c1ccc(C(=O)OCC(=O)Nc2ccc3c(c2)OCO3)cc1,6.85
22,CCOc1cc(C(=O)Nc2ccc(C)cc2C)ccc1OCC(=O)N1CCCCC1,3.78
23,Cc1cccc(NC(=O)C2CCN(S(=O)(=O)c3ccc4c(c3)OCCO4)CC2)n1,-6.28
24,Cc1ccc(CNC(=O)CN2C(=O)NC(C)(c3cccc(Br)c3)C2=O)cc1 (stereo not shown),10.9
25,CC(C)n1nnnc1SCC(=O)Nc1ccccc1F,12.1
26,CCCn1c(N)c(C(=O)CSc2nc(C)cs2)c(=O)[nH]c1=O,-18.3
27,COc1ccc(NS(=O)(=O)c2ccc(O)c(C(=O)OCC(=O)NC(C)C3CC4CCC3C4)c2)cc1 (stereo not shown),13.6
28,O=S(=O)(c1cccc(Cl)c1)N1CCCC1,10.4

row,Compound,"hERG current change (%, negative = inhibition) at 1uM [%]"
1,COc1cc([N+](=O)[O-])ccc1NC(=O)Cc1ccc(F)cc1,7.21
2,CCOc1ccccc1C(=O)NCC(=O)NCCc1ccc(S(N)(=O)=O)cc1,13.8
3,O=C(/C=C/c1cccc([N+](=O)[O-])c1)NCCSCc1c(Cl)cccc1Cl,9.03
4,COc1ccccc1C(=O)NCCC(=O)NCC(c1ccco1)N1CCCC1 (stereo not shown),16.4
5,CCn1c2nc(SCCN3CCOCC3)nnc2c2cc(C)cc(C)c21,-69.2
6,COCCNC(=O)c1cc2oc3ccccc3c2n1C,13.2
7,CCC(C)/C(C)=N/NC(=O)C1COc2ccccc2O1 (stereo not shown),8.4
8,CC(C)c1nc(SCC(=O)Nc2nccs2)c2ccccc2n1,13.8
9,O=S(=O)(Nc1nc2ccccc2nc1Nc1ccc2c(c1)OCCO2)c1cccs1,9.04
10,O=C(Cc1ccc(F)cc1)Nc1nc(-c2ccc(F)c(F)c2)cs1,15.9
11,CCOC(=O)N1CCN(C(=O)CC(C)S(=O)(=O)c2cc3c(cc2C)NC(=O)CO3)CC1 (stereo not shown),6.05
12,COc1ccc(NC(=O)C2CSC3c4ccccc4C(=O)N23)cc1 (stereo not shown),11.2
13,O=C(Nc1ccc(S(=O)(=O)N2CCOCC2)cc1)c1ccc([N+](=O)[O-])s1,8.45
14,O=c1[nH]c(=O)n(Cc2ccc(F)cc2)c(O)c1C=NCC1CCCO1 (stereo not shown),5.85
15,COc1ccc(NC(=O)NCCc2c[nH]c3ccccc23)c(OC)c1,8.55
16,COc1cc(NC(=O)COC(=O)CNC(=O)c2ccc(C)s2)cc(OC)c1,9.55
17,CN1C(=O)c2ccccc2Sc2ccc(NC(=O)N3CCOCC3)cc21,-0.0276
18,COc1cccc(N2CCN(C(=O)c3ccc(CS(=O)c4ccc(C)cc4)o3)CC2)c1 (stereo not shown),-14.8
19,CN(C)C(=O)/C(=C/c1cn(-c2ccccc2)nc1-c1cccc([N+](=O)[O-])c1)NC(=O)c1ccccc1,1.97
20,COc1cc(OC)nc(Oc2cccc(Cl)c2C)n1,14
21,Nc1nnc(SCC(=O)OCC(=O)NC2CCCCC2)s1,6.52
22,O=C1OC(c2ccc([N+](=O)[O-])cc2)=N/C1=C/N1CC2CC(C1)c1cccc(=O)n1C2 (stereo not shown),-13
23,COc1ccc(CSC2=CS(=O)(=O)c3ccccc3N2)cc1,13.8
24,BrCC1C[n+]2c(SCc3ccccc3)nc3sc4c(c3c2O1)CCCC4.[Br-] (stereo not shown),10.3
25,Fc1cccc(C2NN=C(c3ccccc3)S2)c1 (stereo not shown),8.44
26,COc1ccc(NC(=O)CSc2nnc(Cc3ccccc3)o2)c(OC)c1,9.93
27,Cc1ccc2c(c1)C(=O)c1c(C(=O)O)cccc1-2,16.9
